In PubChem BioAssay AID624417 (National Center for Advancing Translational Sciences (NCATS), 2012):
Out of some 410,000 compounds screened, about 6,400 (1.6%) were called active. The inconclusive results got no clear call from the source; some entries with a clear call stand among them for comparison. The call rests on the fitted dose curve; in most records, active means well fitted inhibition curve with a large enough effect; inconclusive means small, poorly fitted or top-dose-only effect; inactive means no such curve, though single readings can be large or run the other way. Potencies of inconclusive entries are doubtful fits and often do not repeat.

Target: Glucagon-like peptide 1 receptor (Homo sapiens) (UniProt P43220)
Sequence of UniProt P43220 (P43220 whole entry, looked up): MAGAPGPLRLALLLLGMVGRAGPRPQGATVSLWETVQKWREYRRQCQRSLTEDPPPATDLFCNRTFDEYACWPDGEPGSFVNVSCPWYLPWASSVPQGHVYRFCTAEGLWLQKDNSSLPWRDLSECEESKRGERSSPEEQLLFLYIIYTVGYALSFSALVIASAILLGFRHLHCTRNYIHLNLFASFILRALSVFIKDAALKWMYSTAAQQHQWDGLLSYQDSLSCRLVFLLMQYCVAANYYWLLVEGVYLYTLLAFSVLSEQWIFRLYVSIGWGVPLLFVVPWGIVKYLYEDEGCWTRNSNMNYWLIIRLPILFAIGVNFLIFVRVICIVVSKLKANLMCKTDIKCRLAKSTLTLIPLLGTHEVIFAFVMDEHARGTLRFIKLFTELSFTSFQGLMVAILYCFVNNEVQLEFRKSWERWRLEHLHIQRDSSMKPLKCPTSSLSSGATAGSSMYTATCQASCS
Test: qHTS of GLP-1 Receptor Inverse Agonists (Inhibition Mode); further: nearly all actives have a fitted effect of over 55% in size
Conditions: HEK293 GLP-1R CRE-luciferase, luminescence, 24 h, GLP-1R form is constitutively active; activity change, negative = inhibition: at 38.3 µM (top of the series) unless noted
Outline: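 Inverse agonists were sought by their lowering of basal cAMP reporter luciferase output in HEK293 cells stably carrying constitutively active human GLP-1R, after 24 h compound treatment.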
On the % scale 0 is the no-effect control and ±100 the full control effect; potency means the concentration at half of the fitted maximal effect; tags describe the fitted curve by direction and shape.

Structure (SMILES) | Potency | activity change, negative = inhibition
CC(C)OCCCNc1ncc2c(n1)CC(c1ccccc1)CC2=O (configuration not stated) | inconclusive: 11.2 µM [inhibitor, partial curve, poor fit] | 
CN1CCc2nc3sc(C(=O)Nc4c(F)cccc4F)c(N)c3cc2C1 | inactive | 
CCOC(=O)C1CCCN(C(=O)CN2C(=O)/C(=C/c3ccc(OC)cc3)Oc3ccccc32)C1 (configuration not stated) | inconclusive: 10 µM [inhibitor, partial curve, poor fit] | 
CN(C)CC(C)(C)CNC(C(=O)Nc1ccc(Cl)cc1C(F)(F)F)c1ccccc1 (configuration not stated) | inconclusive: 11.2 µM [inhibitor, partial curve] | 
COc1ccccc1NC(=O)C1CCCN(c2nc(C)cc(C)n2)C1 (configuration not stated) | inconclusive: 31.6 µM [inhibitor, partial curve, poor fit] | 
COc1ccc(OC)c(NC(=O)C(NS(=O)(=O)c2ccc3c(c2)CCCC(=O)N3)C(C)C)c1 (configuration not stated) | inactive | 
O=C(NC1CCCCC1)N1CCN(S(=O)(=O)c2ccc(F)cc2)CC1 | inactive | 
COc1ccc(NC(=O)CC2C(=O)N(c3cccc(OC)c3)C(=O)N2Cc2cccnc2)cc1 (configuration not stated) | inactive | 
O=C(c1ccc(Cl)cc1)N1CCC(O)(CSc2ccc(Cl)cc2Cl)CC1 | inconclusive: 31.6 µM [inhibitor, partial curve, poor fit] | 
CC(C)NC(=S)N/N=C/c1cc(Br)ccc1O | inconclusive: 3.98 µM [inhibitor, partial curve, poor fit] | 
CCOC(=O)N1CCN(CC(O)COc2ccc(CC)cc2)CC1 (configuration not stated) | inactive | 
CC(C)N(Cc1c(O)ccc2c(=O)c(-c3ccc(Cl)cc3)coc12)C(C)C | inconclusive: 14.1 µM [inhibitor, partial curve, poor fit] | 
COc1ccccc1NS(=O)(=O)c1cc(NC(=O)C2CCC2)ccc1N1CCCCC1 | inconclusive: 1.26 µM [inhibitor, partial curve, poor fit] | 
CN(C)C1(CNC(=O)c2cccc(S(=O)(=O)Nc3ccc(Br)cc3)c2)CCCCC1 | inconclusive: 11.2 µM [inhibitor, partial curve, poor fit] | 
COc1ccccc1N1CCN(C(=O)c2cnn(C(C)(C)C)c2C2CCN(C(=O)OC(C)(C)C)CC2)CC1 | inactive | 
Cc1cc(C(=O)Nc2ccccc2Cc2ccccc2)no1 | inconclusive: 22.4 µM [inhibitor, single point] | 
Cc1c(C)n(Cc2ccc(F)cc2)c2ccc(C(=O)NCCCN3CCOCC3)cc12 | inconclusive: 1.12 µM [inhibitor, full curve, poor fit] | 
CCC(=O)N1CCc2cc(Br)cc(S(=O)(=O)NCCCN(CC)Cc3ccccc3)c21 | inconclusive: 3.98 µM [inhibitor, partial curve, poor fit] | 
CCOc1ccccc1NC(=O)C(=O)N/N=C/c1cc(Br)ccc1O | inconclusive: 3.16 µM [inhibitor, full curve, poor fit] | 
O=C(COC(=O)c1ccccc1Br)NCC1CCCCC1 | inconclusive: 8.91 µM [inhibitor, partial curve, poor fit] | 
O=C(CN1CCN(c2ccccc2)CC1)Nc1ccccc1C(F)(F)F | inconclusive: 7.08 µM [inhibitor, partial curve, poor fit] | 

Structure (SMILES) | Potency | activity change, negative = inhibition
CC1CCCN(c2ccc3nc4ccccc4c(=O)n3n2)C1 (configuration not stated) | active: 5.01 µM | 
CN(CC(=O)NCc1ccc(F)cc1)Cc1ccc(Br)cc1 | inconclusive: 28.2 µM [inhibitor, single point] | 
Cc1cccc(C)c1NC(=O)C(c1ccc(C(F)(F)F)cc1)n1c(=O)c(-c2ccco2)nc2ccccc21 (configuration not stated) | inconclusive: 28.2 µM [inhibitor, single point] | 
O=C1N[C@@H](c2ccccc2)COC(=O)[C@@H](Cc2ccc(F)cc2)C/C=C\C[C@@H]1CC(=O)N(CCO)Cc1ccccc1 | inconclusive: 12.6 µM [inhibitor, partial curve] | 
C=CCN1C(=O)NC(c2ccc(OC)cc2)(C(F)(F)F)S/C1=C(\C#N)c1nnc(N2CCOCC2)n1-c1ccccc1 (configuration not stated) | inconclusive: 3.98 µM [inhibitor, partial curve, poor fit] | 
CC(C)CC(=O)Nc1ccccc1N1CCN(c2ccccc2)CC1 | inconclusive: 8.91 µM [inhibitor, partial curve, poor fit] | 
CCOc1ccc(S(=O)(=O)N(C(C)=O)c2ccc3oc(C)c(C(=O)OC)c3c2)cc1 | inconclusive: 2.51 µM [inhibitor, partial curve] | 
O=C(NCc1cccs1)c1cc2c(s1)CCCC2 | inconclusive: 28.2 µM [inhibitor, single point] | 
CC(C)[C@H](NC(=O)[C@@H]1Cc2ccccc2CN1)C(=O)Nc1ccc2c(c1)OCO2 | inactive | 
Cc1cc(C)c(S(=O)(=O)N2CCC(C(=O)NCc3ccncc3)CC2)c(C)c1 | inconclusive: 20 µM [inhibitor, single point] | 
CC(C)CCNC(=O)NC(=O)CSc1ccc(S(=O)(=O)N2CCOCC2)cn1 | inactive | 
CCN1C(=O)[C@H]2[C@@H](c3ccc(C(F)(F)F)cc3)N[C@]3(CCCN(CC4CCCCC4)C3=O)[C@H]2C1=O | inconclusive: 28.2 µM [inhibitor, single point] | 
Fc1ccc(C(c2nnc(-c3ccccc3)o2)N2CCN(c3ccccc3)CC2)c(Cl)c1 (configuration not stated) | inconclusive: 8.91 µM [inhibitor, partial curve, poor fit] | 
CC(C)C(=O)Nc1c(C(=O)N2CCN(c3ccccc3F)CC2)oc2ccccc12 | inconclusive: 10 µM [inhibitor, single point] | 
O=C(Nc1ccc(N2CCCC2)c(Cl)c1)c1ccccc1F | inconclusive: 28.2 µM [inhibitor, single point] | 
Cc1c(C(=O)Nc2cccc(N(C)S(C)(=O)=O)c2)cccc1[N+](=O)[O-] | inactive | 
CCOC(=O)c1cn(C2CC2)c2c(F)c(NCCCN(C)C)c(F)cc2c1=O | inactive | 
Cc1onc(C(=O)Nc2cccc(C(F)(F)F)c2)c1[N+](=O)[O-] | inconclusive: 12.6 µM [inhibitor, partial curve, poor fit] | 
N#Cc1ccc2ccn(CC(=O)N3CCCc4ccccc43)c2c1 | inconclusive: 22.4 µM [inhibitor, single point] | 
COc1ccc(O)c(CN2CCCC(C(=O)Nc3cccc(-n4cccn4)c3)C2)c1 (configuration not stated) | inconclusive: 10 µM [inhibitor, partial curve] | 
O=C1C(Cc2ccccc2)Nc2ncnc(N3CCOCC3)c2N1Cc1ccc(Cl)cc1 (configuration not stated) | inconclusive: 28.2 µM [inhibitor, single point] | 

Structure (SMILES) | Potency | activity change, negative = inhibition
CCN=C1SC(C(=O)Nc2cccc(Br)c2)CC(=O)N1CC (configuration not stated) | inconclusive: 11.2 µM [inhibitor, partial curve] | 
CC1CCCCN1C(=O)CSc1nnc(-c2ccccc2O)o1 (configuration not stated) | inconclusive: 17.8 µM [inhibitor, single point] | 
O=C(CN1C(=O)NC2(CCCCCC2)C1=O)Nc1ccc(Cl)cc1Cl | inconclusive: 20 µM [inhibitor, single point] | 
COc1ccc(-n2nnnc2C(CCc2ccccc2)N2CCN(C/C=C/c3ccccc3)CC2)cc1 (configuration not stated) | inconclusive: 28.2 µM [inhibitor, single point] | 
CN(C)c1ccc(/C=N/NC(=S)NCc2ccccc2)cc1 | inconclusive: 4.47 µM [inhibitor, partial curve] | 
CC1CCC(NC(=O)c2ccc(CS(=O)(=O)Cc3ccccc3F)o2)CC1 (configuration not stated) | inconclusive: 15.8 µM [inhibitor, single point] | 
Cc1ccc(-c2nc(CCNC(=O)C(=O)Nc3ccc(F)cc3F)cs2)cc1 | inactive | 
CCc1ccc(C(O)(c2ccccc2OC)C(CN2CCOCC2)c2ccccc2)cc1 (configuration not stated) | inconclusive: 22.4 µM [inhibitor, single point] | 
COc1ccc(C(C(=O)NCc2ccccc2)N(C(=O)c2snc(C(N)=O)c2N)c2ccccc2OC)cc1 (configuration not stated) | inconclusive: 11.2 µM [inhibitor, partial curve, poor fit] | 
CCCCCN1CC(=O)N2[C@@H](Cc3c([nH]c4ccccc34)C2(C)C)C1=O | inconclusive: 7.08 µM [inhibitor, partial curve, poor fit] | 
CCc1nc2c(OCc3ccc(F)cc3)cccn2c1N(C)C(=O)C(C)C | inactive | 
COc1ccc(-c2csc(NC(C)c3nc4cc(Cl)c(Cl)cc4n3CCCO)n2)cc1 (configuration not stated) | inconclusive: 14.1 µM [inhibitor, single point] | 
COC(=O)C(NC(=O)c1ccccc1Cl)(Nc1ncc(S(=O)(=O)c2ccc([N+](=O)[O-])cc2)s1)C(F)(F)F (configuration not stated) | inconclusive: 28.2 µM [inhibitor, single point] | 
Cc1ccc(C(=O)Nc2cc3cc(Cl)ccc3oc2=O)cc1 | inactive | 
CCCn1c(N2CCN(Cc3ccc(Cl)cc3)CC2)nc2ccccc21 | active: 11.2 µM | 
CCOC(=O)CNC(=S)N(Cc1ccccc1F)C1CCCCC1 |  | inconclusive: -41.7% [inhibitor] [at 7.66 µM]
C/C(=N\NC(=O)c1ccccc1F)c1ccccn1 | inconclusive: 2.82 µM [inhibitor, full curve, poor fit] | 
Cc1ccc2c(Cl)c(C)c(N3CCCC3)nc2n1 | inconclusive: 11.2 µM [inhibitor, partial curve, poor fit] | 
O=C(O)c1cccc(CSc2nc(-c3ccccc3)cc(C(F)(F)F)n2)c1 | inconclusive: 28.2 µM [inhibitor, single point] | 
Cc1ccc(NS(=O)(=O)c2ccc(C(=O)NCC(c3ccco3)N3CCCCC3)cc2)cc1 (configuration not stated) | inconclusive: 10 µM [inhibitor, partial curve, poor fit] | 
